# B1: MS2 coat protein; the commonest letter at each place (parent)
# chain: MASNFTQFVLVDNGGTGDVTVAPSNFANGVAEWISSNSRSQAYKVTCSVRQSSAQNRKYTIKVEVPKVATQTVGGVELPVAAWRSYLNMELTIPIFATNSDCELIVKAMQGLLKDGNPIPSAIAANSGIY
# Variants of: B1
# Assay: apparent fitness score (VLP assembly selection enrichment vs plasmid library) (log10 ratio); higher = better expression / assembly into well-formed VLPs
# 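Further: counts from Illumina MiSeq reads, cDNA of packaged RNA versus plasmid DNA taken before selection, each replicate independent from library construction onward, expression induced with 0.1% arabinose.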
row,Variant,apparent fitness score (log10)
1,A81L,< -4
2,A81M,-0.994
3,A81C,< -4
4,A81E,< -4
5,A81H,< -4
6,A81N,-0.292
7,A81R,-1.31
8,A81K,< -4
9,A81S,0.516
10,A81Y,-1.52
11,A81V,< -4
12,A81Q,< -4
13,A81T,0.0977
14,A81G,-2.04
15,A81P,-0.931
16,A81F,< -4
17,A81W,-0.568
18,A81I,< -4
19,A81D,< -4
20,S85Y,-0.999
21,S85G,0.00816
22,S85L,-0.72
23,S85T,-0.823
24,S85V,-0.689

row,Variant,apparent fitness score (log10)
1,S85N,-0.999
2,S85K,< -4
3,S85I,-1.11
4,S85M,-0.676
5,S85D,-1.3
6,S85E,-1.07
7,S85Q,< -4
8,S85R,-1.47
9,S85A,0.6
10,S85H,< -4
11,S85F,-0.692
12,S85C,0.0724
13,S85P,-0.594
14,S85W,-0.999
15,V80A,0.0418
16,V80P,< -4
17,V80G,-0.331
18,V80K,< -4
19,V80N,-0.413
20,V80H,0.21
21,V80Q,-0.221
22,V80R,-0.698
23,V80F,< -4
24,V80L,< -4

row,Variant,apparent fitness score (log10)
1,V80T,1.1
2,V80Y,-0.529
3,V80M,-0.0906
4,V80I,-0.112
5,V80E,< -4
6,V80W,< -4
7,V80S,-0.397
8,V80C,-0.0295
9,P79R,< -4
10,P79F,< -4
11,P79S,-0.0825
12,P79H,-0.706
13,P79G,< -4
14,P79C,< -4
15,P79L,0.173
16,P79T,0.214
17,P79I,< -4
18,P79N,-0.388
19,P79W,< -4
20,P79D,< -4
21,P79V,< -4
22,P79M,< -4
23,P79K,< -4
24,P79Y,-0.382

row,Variant,apparent fitness score (log10)
1,P79A,< -4
2,W83C,-0.474
3,W83Y,< -4
4,W83R,-0.405
5,W83N,< -4
6,W83D,< -4
7,W83E,-1.8
8,W83I,-1.28
9,W83V,-1.46
10,W83H,< -4
11,W83G,-1.09
12,W83P,< -4
13,W83M,< -4
14,W83F,-0.713
15,W83L,-1.55
16,W83A,< -4
17,W83Q,< -4
18,W83S,-1.23
19,W83K,-1.82
20,W83T,-1.26
21,A82Y,< -4
22,A82C,-1.3
23,A82H,-0.775
24,A82T,-0.853

row,Variant,apparent fitness score (log10)
1,A82W,-1.2
2,A82M,-1.4
3,A82F,< -4
4,A82R,-1.74
5,A82E,-0.693
6,A82N,< -4
7,A82L,-1.46
8,A82P,-0.482
9,A82K,< -4
10,A82G,-1.45
11,A82Q,-1.6
12,A82D,< -4
13,A82V,< -4
14,A82I,< -4
15,A82S,-1.11
16,R84V,-1.1
17,R84D,-1.05
18,R84Q,-1.28
19,R84F,-1.71
20,R84T,-1.28
21,R84A,-1.17
22,R84E,-1.45
23,R84N,< -4
24,R84I,< -4

row,Variant,apparent fitness score (log10)
1,R84C,0.271
2,R84P,-0.999
3,R84Y,< -4
4,R84S,-1.78
5,R84H,-0.428
6,R84L,< -4
7,R84K,0.44
8,R84M,< -4
9,R84W,-0.653
10,R84G,-0.526
11,L78H,< -4
12,L78W,< -4
13,L78V,-1.18
14,L78E,< -4
15,L78P,-0.382
16,L78S,< -4
17,L78Y,-0.164
18,L78Q,< -4
19,L78K,-0.744
20,L78F,0.214
21,L78R,-0.687
22,L78C,-0.915
23,L78M,-0.765
24,L78G,-0.65

row,Variant,apparent fitness score (log10)
1,L78I,-0.263
2,L78A,< -4
3,L78T,< -4
4,L78N,-0.123
5,E77F,0.138
6,E77Y,0.0581
7,E77V,0.312
8,E77R,-0.351
9,E77S,0.406
10,E77P,0.492
11,E77A,0.482
12,E77Q,0.551
13,E77N,0.604
14,E77C,0.708
15,E77T,0.279
16,E77M,0.442
17,E77L,0.552
18,E77W,-0.0444
19,E77D,0.278
20,E77K,-0.19
21,E77I,0.477
22,E77H,0.349
23,E77G,0.525

# From the supplement of paper PMC5895741
